Assay results reported in the antibiotic and cytotoxicity screens of Wong et al. (2023).
Some of the results follow.

test system: S. aureus RN4220; experiment: growth inhibition call (relative growth <= 0.2); details: 50 µM

Growth inhibition call, active:
NC(C(=O)NC1C(=O)N2C(C(=O)O)=C(Cl)CSC12)c1ccccc1 (stereo not given), N[C@H]1CCN(c2nc3c(cc2F)c(=O)c(C(=O)O)cn3-c2ccc(F)cc2F)C1

Growth inhibition call, inactive:
CC(C)N(CCOc1c(Br)cc(/C=C/C(=O)NCCCOc2c(Br)cc(CCN(C)C)cc2Br)cc1Br)C(C)C, C[C@H]1CCCCO[C@@H](CN(C)S(=O)(=O)c2ccc(F)cc2)[C@@H](C)CN([C@@H](C)CO)C(=O)c2cc(NS(=O)(=O)c3ccc(Cl)cc3)ccc2O1, Cc1ccc(S(=O)(=O)Nc2ccc3c(c2)C(=O)N([C@@H](C)CO)C[C@H](C)[C@@H](CN(C)S(=O)(=O)c2ccc(C)cc2)OCCCC[C@@H](C)O3)cc1, Clc1ccc(-c2csc(-c3ccc4c(c3)CCO4)n2)s1, Cc1cc(C2(c3cc(C)c(N)c(C)c3)CCCCC2)cc(C)c1N, CO[C@@H]1CN(C)C(=O)c2cc(NC(=O)C3CC3)ccc2OC[C@@H](C)N(C(=O)C2CCOCC2)C[C@H]1C, COCCCOc1cc(C[C@@H](C[C@H](N)[C@@H](O)C[C@H](C(=O)NCC(C)(C)C(N)=O)C(C)C)C(C)C)ccc1OC, COc1ccc(S(=O)(=O)N(C)C[C@@H]2Oc3c(NS(=O)(=O)c4ccc(F)cc4)cccc3C(=O)N([C@@H](C)CO)C[C@@H]2C)cc1, C[C@H](CO)N1C[C@H](C)[C@H](CN(C)C(=O)c2ccccc2)OCCCC[C@H](C)Oc2ccc(NC(=O)Nc3ccc4c(c3)OCO4)cc2C1=O, C[C@H](CO)N1C[C@H](C)[C@@H](CN(C)S(=O)(=O)c2ccccc2)Oc2ccc(NS(C)(=O)=O)cc2C1=O, C[C@@H]1CN([C@H](C)CO)C(=O)Cc2cc(NC(=O)CCCN(C)C)ccc2O[C@H]1CN(C)C(=O)Nc1ccc2c(c1)OCO2, C[C@@H]1CN([C@@H](C)CO)C(=O)CCCn2cc(nn2)CO[C@H]1CN(C)C(=O)c1cc(-c2ccccc2)on1, C[C@H](CO)N1C[C@H](C)[C@@H](CN(C)C(=O)Nc2ccc3c(c2)OCO3)Oc2ccc(NC(=O)c3ccncc3)cc2C1=O, CCc1nc2ccc(C(=O)N3CCN(S(=O)(=O)CC)CC3)cn2c1N(C)Cc1ccc(Cl)cc1, C[C@H](CO)N1C[C@H](C)[C@@H](CN(C)Cc2ccccc2)Oc2ccc(NC(=O)Cn3cnnn3)cc2CC1=O, C[C@@H]1CN([C@@H](C)CO)C(=O)c2cc(C#CC3(O)CCCC3)cnc2O[C@@H]1CN(C)C(=O)Nc1ccc2c(c1)OCO2, Cc1ccccc1S(=O)(=O)N1C[C@@H](O)COC[C@@H]2O[C@@H](CC(=O)NCCc3ccccc3)CC[C@H]21, C[C@H]1CN([C@@H](C)CO)S(=O)(=O)c2ccc(C#CCN(C)C)cc2O[C@@H]1CN(C)Cc1cccnc1, COCC#Cc1ccc([C@H]2[C@@H](CO)N3C(=O)CN(C(=O)c4ccncc4)C[C@@H]23)cc1, Cn1cc(C(=O)NCc2cn3c(n2)CNCC3)cn1, COCC(=O)N(C)C[C@H]1Oc2cc(-c3ccc(OC)cc3)ccc2S(=O)(=O)N([C@H](C)CO)C[C@H]1C, C[C@@H]1CN([C@@H](C)CO)C(=O)c2cc(NC(=O)C3CCCCC3)ccc2O[C@@H]1CN(C)S(=O)(=O)c1cn(C)cn1, COCC(=O)N1C[C@]2(C1)CN([C@H](CO)c1c2c2ccc(cc2n1C)OC)C(=O)CN1CCOCC1, Nc1nc(=O)n([C@H]2C[C@H](O)[C@@H](CO)O2)cc1O, NCc1ccc(S(N)(=O)=O)cc1, COCC#Cc1cnc2c(c1)C(=O)N([C@H](C)CO)C[C@@H](C)[C@H](CN(C)C(=O)Nc1cc(F)ccc1F)O2, C[C@@H]1CCCCO[C@H](CN(C)C(=O)C2CCCCC2)[C@H](C)CN([C@H](C)CO)C(=O)c2cc(NS(=O)(=O)c3ccc(Cl)cc3)ccc2O1, C[C@@H]1CN([C@H](C)CO)C(=O)c2cc(NC(=O)C3CCCCC3)ccc2O[C@@H](C)CCCCO[C@H]1CN(C)C(=O)NC1CCCCC1, C[C@H](CO)N1C[C@H](C)[C@@H](CN(C)Cc2ccc(-c3ccccc3)cc2)Oc2ccc(NC(=O)Nc3ccccc3)cc2CC1=O, C=C1C[C@@]23CC[C@@H]4[C@@](C)(CCC[C@@]4(C)C(=O)OC)[C@H]2CC[C@@H]1C3, Cn1cnc(S(=O)(=O)N2C[C@H](O)COC[C@H]3O[C@@H](CC(=O)NC4CCC4)CC[C@@H]32)c1, C[C@H](CO)N1C[C@H](C)[C@H](CN(C)S(=O)(=O)c2cn(C)cn2)Oc2cc(C#Cc3ccc(F)cc3)ccc2S1(=O)=O, C[C@H](CO)N1C[C@H](C)[C@@H](CN(C)Cc2ccc(-c3ccccc3)cc2)Oc2ccc(NC(=O)Nc3ccc(F)cc3)cc2C1=O, C[C@H](CO)N1C[C@H](C)[C@H](CN(C)Cc2ccc(C(F)(F)F)cc2)Oc2ccc(NC(=O)Nc3cccc4ccccc34)cc2CC1=O, CC(C)NC(=O)Nc1ccc2c(c1)C(=O)N([C@@H](C)CO)C[C@H](C)[C@@H](CN(C)C(=O)C1CCCCC1)OCCCC[C@H](C)O2, CC1=CCc2c(cc3oc(C)cc(=O)c3c2O)OC1, C[C@H]1CN([C@@H](C)CO)S(=O)(=O)c2ccc(C#CC(C)(C)O)cc2O[C@@H]1CN(C)Cc1ccccc1, C[C@H](CO)N1C[C@H](C)[C@H](CN(C)C(=O)Nc2ccc(F)cc2)Oc2ncc(-c3cc4ccccc4o3)cc2C1=O
